Measured values: PMC12040169 (PLOS Biology, 2025)
The list shows a part of the results.

System: T1, C. trachomatis L2/434/Bu expressing GFP (CTL2-GFP)
T1 construct: L2/434/Bu GFP intracellular growth in HeLa cells
Design: species or system HeLa; C. trachomatis total inclusion area by high-content imaging, normalised to DMSO
Details: total inclusion area; 28.5 h, 10 µM; inhibitor
Outline: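 High-content images of fixed, Hoechst-stained infected cultures supply inclusion area and count (growth) plus nuclei number (viability), complementing bulk GFP/resorufin fluorescence. MIC determination is unchanged from the primary assay.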

Compound	% of control remaining
CSCCCNC(=O)c1cncc(-c2ccc(C(=O)N3CCOCC3)cc2)c1 [CBK158610]	9.274
Oc1ccccc1Sc1cnccn1 [CBK085840]	96.0048
Cc1ccc(S(N)(=O)=O)cc1NC(=O)c1ccco1 [CBK004204]	83.5795
COc1cccc2sc(NC(=O)Cc3ccccc3)nc12 [CBK149284]	88.6799
Cn1c(-c2nonc2N)nc2ccccc21 [CBK062642]	70.7396
c1ccc(Oc2ccc(Nc3cc(-c4ccc(N5CCOCC5)cc4)ncn3)cc2)cc1 [CBK090923]	81.5047
N=C1OC2CSCC2N1C(=O)Cc1c(F)cccc1Cl (centres unmarked) [CBK284517]	70.3446
O=S(=O)(Nc1nccnc1-c1ccc2c(c1)OCO2)c1ccc(Cl)cc1 [CBK050952]	82.5982
Cc1ccc(C(C)C)c(OCC(=O)Nc2cc(-c3nc4ccccc4[nH]3)ccc2C)c1 [CBK268724]	86.6574
CC(C)(C)C(=O)Nc1nnc(SCC(=O)N2CCc3ccccc32)s1 [CBK004889]	100.728
Cc1cc2c(o1)c1cnn(CC(=O)N3CCCC3)c(=O)c1n2C(C)C [CBK284232]	87.8886
O=c1cnnc(Nc2cccc(Cl)c2Cl)[nH]1 [CBK287897]	81.9979
COc1cnc(-c2cnn(C)c2)c(NC(=O)Cc2ccccc2)n1 [CBK145327]	77.5714
NC(=O)c1c(NC(=S)NC(NC(=O)c2ccccc2)C(Cl)(Cl)Cl)sc2c1CCCC2 (centres unmarked) [CBK261048]	75.471
CCOc1ccc(-c2nn(-c3ccccc3)cc2/C=C2\SC(=S)N(CC(=O)O)C2=O)cc1F [CBK265647]	115.125
O=C(c1cnn2cccnc12)N1CCc2[nH]c3ccccc3c2C1 [CBK281874]	72.9568
CCOC(=O)N1CCC(NS(=O)(=O)c2c(C)noc2C)CC1 [CBK045465]	88.156
CC(C)n1c(COc2ccc(OC(F)(F)F)cc2)n[nH]c1=S [CBK012989]	74.3835
O=C(O)c1ccc(S(=O)(=O)NCc2ccc3c(c2)OCO3)cc1 [CBK262360]	105.985
Cc1cc(C(=O)NCCc2ccc(S(N)(=O)=O)cc2)no1 [CBK268130]	97.6258
Cc1cccnc1Nc1nc(-c2sc(N)nc2C)cs1 [CBK267147]	124.774
O=C(Cn1cccc(C(=O)NCc2ccccc2)c1=O)Nc1cc(F)ccc1N1CCCC1 [CBK286041]	109.395
C#CCNS(=O)(=O)c1cccc(C(=O)NCC2CCCN(C(C)C)C2)c1 (centres unmarked) [CBK305981]	53.6614
CC(C)CC1CC(=O)Nc2c1c(=O)[nH]n2C(C)C (centres unmarked) [CBK287924]	66.9361
Cn1ncnc1CNc1ccc(S(=O)(=O)N2CCCCCC2)cc1 [CBK305278]	62.4131
COc1cc(C(=O)c2ccc(Cl)cc2)cc(Br)c1OCCN1CCOCC1 [CBK010131C]	1.866
COc1cc(C)nc(NC(=O)COc2ccc(Cl)cc2C)n1 [CBK266681]	112.444

Compound	% of control remaining
N#Cc1ccc(C(=O)Nc2ccc(N3CCNCC3)nc2)cc1 [CBK029435T]	95.3915
O=S(=O)(NCCN1CCOCC1)c1cc(Cl)ccc1Cl [CBK261757]	90.8145
O=S(=O)(NCCSCc1c(Cl)cccc1Cl)c1ccc(Cl)cc1 [CBK265304]	96.6749
CC(C)(C)c1ccc(OCc2nnc(S)n2N)cc1 [CBK268421]	96.5387
COc1ccc(C=CC(=O)ONC(=O)c2ccc(OC(F)F)cc2)cc1OC [CBK296098]	104.202
C=C(C)Cn1c(SCC(C)C)nnc1-c1ccccc1F [CBK200077]	95.603
Cc1cc(C)n(C(=O)CCC(=O)Nc2cccc(Cl)c2C)n1 [CBK263851]	77.3816
CC(C)c1nsc(NS(=O)(=O)c2cc(C(F)(F)F)cc(C(F)(F)F)c2)n1 [CBK051263]	122.374
Cc1cccn2cc(CCNC(=O)N[C@H](C)C(=O)N(C)C)nc12 [CBK304617]	72.1115
CCOc1ncccc1CNc1ncnc2c1cnn2CCO [CBK305964]	79.6667
COCCC(=O)N1C2CCC(C2)[C@@H]1COc1ccc(F)cc1 (some centres unmarked) [CBK284604]	98.3707
CC(=O)NC(C)(COc1nonc1C)COc1nonc1C [CBK265955]	82.386
O=C(CN1CCN(Cc2ccccc2)CC1)Nc1ccccc1Oc1ccccc1 [CBK074782]	90.2117
O=C1NCC2(CCN(C(=O)c3cccs3)CC2)Oc2ccccc21 [CBK282917]	109.977
COc1ccc(-c2cnc(N)c(NCCCN3CCOCC3)n2)c(OC)c1OC [CBK063676]	99.0166
CCCc1[nH]nc(O)c1CCc1ccccc1F [CBK075080]	92.0169
COc1ncc(-c2cncc(Nc3ccccc3)n2)c(OC)n1 [CBK065282]	111.624
NC(=O)c1ccc(C(=O)NCC2CN3CCCN2CC3)cc1 (centres unmarked) [CBK304143]	38.6574
O=C(CCn1c(=O)oc2ccccc21)Nc1ccc(S(=O)(=O)N2CCCCC2)cc1 [CBK268365]	119.029
CN(C)CCN(Cc1cccnc1)C(=O)Cc1ccc2c(c1)CCC2 [CBK282770]	90.3833
COc1cc(OC)c2c(c1)OC1(CCN(C(=O)C3CCCO3)CC1)CC2=O (centres unmarked) [CBK156476]	79.8862
COc1ccccc1CN(CC1CCNCC1)C(=O)Nc1c(C)noc1C [CBK049739]	75.5714
Cc1cc(OCC(=O)NCc2cccnc2)cc(C)c1Cl [CBK263658]	104.328
O=C(NC1CC2(CCCC2)Oc2ccccc21)C1CCCO1 (centres unmarked) [CBK282420]	81.1464
O=C(C1CCCC1)N1CCC(c2nnc(-c3ccsc3)o2)CC1 [CBK283379]	103.102
O=C(O)c1cc(NC(=O)c2ccc(Oc3ccc([N+](=O)[O-])cc3)cc2)cc(C(=O)O)c1 [CBK261188]	97.1047
O=C(Nc1ncnc2c1[nH]c(=O)n2C1CC(O)C(CO)O1)c1ccccc1 (centres unmarked) [CBK201250]	104.385

Compound	% of control remaining
Cc1cc(CN(C)Cc2ccc(N3CCCC3)c(F)c2)n[nH]1 [CBK281953]	81.3225
Cc1cc(N2CCN(c3ccccc3)CC2)nc(-c2ccccc2O)n1 [CBK116405]	86.8684
Clc1ccc(COc2ccccc2OCc2ccccc2)s1 [CBK002766]	80.0767
Cc1nc2n(n1)CCN(C(=O)Cc1c(C)[nH]c3ccc(F)cc13)C2 [CBK284355]	74.4248
CN1CCN(C(=O)c2ccsc2NS(=O)(=O)c2ccc(-c3ccccc3)cc2)CC1 [CBK042274]	85.5951
O=C(Cn1nnc(-c2ccc3c(c2)OCO3)n1)Nc1ccccc1C(=O)O [CBK268025]	91.3916
COc1cc(CNC(=O)N2CCC(C(=O)O)CC2)cc(OC)c1OC [CBK161401]	64.5139
Cc1ccc(S(=O)(=O)Nc2nc(C)c(C(=O)N3CCN(C)CC3)s2)cc1 [CBK045812]	79.4487
O=c1[nH]c(=O)c2cc(S(=O)(=O)N3CCN(c4ccccn4)CC3)ccc2[nH]1 [CBK286379]	93.039
CCc1ccccc1NC(=S)Nc1cccc(C)n1 [CBK288415]	68.1686
CCOc1ccc(Nc2nc(-c3ccc(F)cc3)c(CC(=O)O)s2)cc1 [CBK296064]	111.135
NC(=O)CN1C(=O)[C@@H]2CCCN2C(=O)c2ccccc21 [CBK283090]	76.7932
COCCNCc1ccc(OCc2ccccc2)cc1 [CBK270133C]	84.9977
O=S(=O)(c1ccccc1Br)N1CCOCC1 [CBK062404]	75.0662
CCCn1c(SCC(=O)Nc2scc(-c3cccs3)c2C(=O)OCC)n[nH]c1=O [CBK296967]	74.8231
N#Cc1ccc(CNC2(Cc3cc(-c4ccc(F)cc4)on3)COC2)cc1 [CBK289653]	117.35
Cc1oc(NC(=O)CN2CCN(c3ccc(F)cc3)CC2)c(C#N)c1C [CBK305907]	82.1945
O=C(NC1CC1)[C@H]1CN2CCC1C[C@@H]2Cn1cc(CC2CCCCC2)nn1 (some centres unmarked) [CBK288739]	94.5109
O=C1C2(c3ccccc3)CN3CN(C2)CC1(c1ccccc1)C3 [CBK262245]	78.0488
CS(=O)(=O)NCC1(c2ccccc2)CCN(S(=O)(=O)c2ccc(N3CCOCC3)nc2)CC1 [CBK051634]	41.7051
COc1ccc(S(=O)(=O)N2CCN(Cc3cc(OC)c(OC)c(OC)c3)CC2)cc1 [CBK263330]	95.6909
Cn1cccc1C(=O)N[C@H]1C[C@@H]2C(=O)N[C@H]3CCN(C(=O)CC(C)(C)C)[C@@H]3C(=O)N2C1 [CBK289271]	113.151
CC1=C(C(=O)OCC(=O)c2ccc(C)cc2)C2C=C(Br)C=CC2N=C1c1ccc(C)cc1 (centres unmarked) [CBK264079]	105.383
CS(=O)(=O)Nc1cc2cccnc2c(-c2ccccc2)n1 [CBK061928]	96.3966
COc1cc(CNc2cncc(-c3ccc4c(c3)OCO4)n2)cc(OC)c1OC [CBK065922]	108.467
CC(Nc1cc(Cl)c(C(F)(F)F)cc1[N+](=O)[O-])c1ccc2[nH]c(=O)[nH]c2c1 (centres unmarked) [CBK297721]	83.0664
